PubChem BioAssay AID463173 (ICCB-Longwood Screening Facility, Harvard Medical School, 2010)
The campaign covered roughly 52,000 compounds. About 4,300 (8.3%) were called active. Rule as the data show it: active = survival mostly below about 52% (no sharp cut-off); inactive = mostly above about 56%. Some of the results follow.

What follows are compounds tested on DeltatarO mutant (assay: growth inhibition of S. aureus wild type versus tarO mutant, primary screen, teichoic acid synthesis inhibitors, RN4220, OD600 (AID 463173)). Details: OD600, 18 h, active compounds read low, screened at 18.75 µg/mL (by protocol).

Structure (SMILES)	survival
CCOc1ccc(NC(=O)CSC2=Nc3ccccc3C3=NC(CCC(=O)NCc4ccccc4)C(=O)N23)cc1 (centres undefined)	inactive: 98%
Cc1ccc(CSc2nc3ccc(NC(=O)COc4ccccc4)cc3s2)cc1	inactive: 87%
COc1ccc(OCC(=O)NCc2ccc3c(c2)CCN3C(=O)c2ccccc2)cc1	inactive: 70%
COc1ccccc1N1CCN(c2ncnc3c2cnn3-c2cc(Cl)ccc2C)CC1	inactive: 124%
CCc1ccc(C(=O)c2cn(CC(=O)Nc3cccc(OC)c3)c3ccc(OC)cc3c2=O)cc1	inactive: 65%
Cc1cc2oc(C(=O)Nc3ccc(S(N)(=O)=O)cc3)cc(=O)c2cc1C	inactive: 70%
O=C(NCCc1ccccc1)c1cnc2sc(N3CCCCCC3)nn2c1=O	inactive: 90%
Cc1ccc(C(=O)N2c3ccc(C)cc3C(C)(c3ccccc3)CC2(C)C)cc1 (centres undefined)	active: 4%
C=CCNC(=O)CSc1nc(-c2ccco2)cc(C(F)(F)F)n1	inactive: 67%
CCCCCn1c(=O)[nH]c2cc(C(=O)Nc3cc(C)cc(C)c3)ccc2c1=O	inactive: 88%
CN(C)S(=O)(=O)N(CC(=O)NCCSCc1ccccc1)c1ccccc1	inactive: 66%
Cc1cccc(N2C(=O)N(CC(=O)C(C)(C)C)c3ccccc3S2(=O)=O)c1C	inactive: 81%
Cc1ccc(C)c(NC(=O)CN2CCCN(Cc3cccc(Cl)c3)S2(=O)=O)c1	inactive: 95%
CC[n+]1c(C)oc2ccc(OC)cc21	inactive: 64%
Cn1nc(C(=O)NCc2ccc(Cl)cc2)c2c1-c1ccccc1S(=O)(=O)C2	inactive: 66%
Cc1ccc(OCc2nc(-c3ccc(C(=O)N4CCN(c5ccccc5F)CC4)cc3)oc2C)cc1	inactive: 79%
COc1ccc(CNC(=O)Cn2c(SCC(=O)Nc3ccc(OC)cc3)nc3ccccc32)cc1	inactive: 89%
Cc1cccc(-n2ncc(C(=O)N3CCN(c4ccc(Cl)cc4)CC3)c2C2CCN(C(=O)OC(C)(C)C)CC2)c1	inactive: 82%
CCc1ccc2nc(N(CCN(CC)CC)C(=O)c3ccco3)sc2c1	inactive: 54%
Cc1ccc(NC(=O)c2ccc(-c3cccc(Cl)c3C)o2)cc1	active: 1%
COc1ccc(OC)c(CNC(=O)c2cc3c(-c4ccc(OC)c(OC)c4)nn(C)c3s2)c1	inactive: 82%
CCNC(=S)N1CCC(C(=O)c2ccc(Cl)cc2)CC1	inactive: 84%
COc1ccc(C2C(C#N)=C(N)Oc3c2ccc2cccnc32)cc1 (centres undefined)	inactive: 103%

Structure (SMILES)	survival
COC(=O)c1ccc(OCC2c3cc(OC)c(OC)cc3CCN2C(=O)Cc2ccc(OC)cc2)cc1 (centres undefined)	inactive: 79%
CCc1ccc(Sc2cc(C(=O)NCc3cccc(OC)c3)c3ccccc3n2)cc1	inactive: 80%
COc1ccc(C2NC(=O)N(C)C3=C2C(=O)N(c2cccc(Cl)c2)C3)cc1 (centres undefined)	inactive: 61%
CCOc1ccc(N2CC(NC(=O)C(=O)c3c[nH]c4ccccc34)CC2=O)cc1 (centres undefined)	inactive: 67%
CCn1c(=O)cc(SCC(=O)NCc2ccc(F)cc2Cl)c2ccccc21	inactive: 85%
Cc1cccc(NC(=O)CSc2cn(CC(=O)N3CCCCCC3)c3ccccc23)c1	inactive: 104%
Cc1cc(OC(C)C(=O)Nc2c(C(=O)c3ccc(F)cc3)oc3ccccc23)ccc1Cl (centres undefined)	inactive: 86%
CCc1ccc(Sc2cc(C(=O)NCc3ccccc3OC)c3ccccc3n2)cc1	inactive: 69%
CCOc1ccc(C(=O)/C=C/c2cn(CC(O)CN3CCCCCC3)c3ccccc23)cc1 (centres undefined)	active: 1%
Cc1ccccc1C(=O)Nc1cc2c(cc1N1CCOCC1)n(C)c(=O)n2C	inactive: 83%
Cc1cc(C)c(S(=O)(=O)Nc2ccc(-c3ccc(N4CCC(C)CC4)nn3)cc2)cc1C	inactive: 76%
C=CCNC(=O)c1cc2c(=O)n3cccc(C)c3nc2n(CCN2CCOCC2)c1=N	inactive: 103%
Cc1cccc(C)c1Nc1c(-c2ccccc2F)nc2cccc(C)n12	active: 6%
CC(C)CCNC(=O)C1CCN(Cc2ccccc2O)CC1	inactive: 93%
Cc1cc2nnc(SCc3ccc(F)cc3)n2c2ccccc12	active: -1%
CC(C)CCn1c(=O)c2cccnc2n(CC(=O)Nc2ccc(F)cc2)c1=O	inactive: 77%
COc1cccc(-c2cc(C(=O)Nc3c(C)nn(Cc4ccccc4Cl)c3C)no2)c1	active: 34%
COc1ccc2occ(CC(=O)Nc3ccc(S(=O)(=O)Nc4nccc(C)n4)cc3)c2c1	inactive: 71%
Cc1ccc(CNC(=O)c2sc3nc[nH]c(=O)c3c2C)cc1	inactive: 117%
C#CCn1c(C2CC(=O)N(c3ccc(OC)cc3)C2)nc2ccccc21 (centres undefined)	inactive: 78%
CN1CCN(C2(CNC(=O)c3ccc(C(C)(C)C)cc3)CCCCC2)CC1	inactive: 70%
Cc1ccc2oc3c(c(=O)c2c1)C(c1ccc(O)cc1)N(Cc1ccc2c(c1)OCO2)C3=O (centres undefined)	inactive: 71%
CCOc1ccc(C(=O)c2cn(CC(=O)Nc3ccc(OC)cc3)c3cc4c(cc3c2=O)OCCO4)cc1	inactive: 82%

Structure (SMILES)	survival
CCC1(C)CC(=O)c2c(ccc3oc(C(=O)NCc4ccccc4)c(C)c23)O1 (centres undefined)	active: 44%
COc1ccc2[nH]c(=O)c(CN(C(=O)c3cccc(Cl)c3)c3ccccc3C)cc2c1	inactive: 71%
O=C(NCCC1=CCCCC1)C1CCN(C(=O)Cc2ccccc2)CC1	inactive: 92%
Cn1cccc1/C=N/NC(=O)c1ccccn1	inactive: 77%
COc1ccc(CNc2nc(SCc3ccc(Cl)cc3)nc3ccccc23)cc1	inactive: 102%
Cc1ccc2[nH]c3c(=O)n(N)c(C)nc3c2c1	inactive: 79%
COc1ccc(-c2c3c(=O)n(C)c(=O)n(C)c3c3n2-c2ccccc2NC3c2ccc(OC)cc2)cc1 (centres undefined)	inactive: 74%
Cc1ccc(NC(=O)c2cc(S(=O)(=O)N(C)C3CCCCC3)ccc2F)cc1C	inactive: 66%
COc1ccccc1C(=O)Oc1c(Sc2ccccc2)c(C)nn1C(C)(C)C	inactive: 87%
CC(C)N(C(=O)N1CCC(c2ccccc2F)CC1)C(C)C	inactive: 87%
COc1ccc(NC(=O)c2ccc(-c3nc(CSc4ccc(C)cc4)c(C)o3)cc2)cc1Cl	inactive: 64%
O=C(Nc1ccc(C(=O)N2CCN(c3cccc(Cl)c3)CC2)cc1)c1nsc2ccccc12	inactive: 79%
CCCCCN1C(C(=O)c2ccccc2)=C(NC(=O)c2ccc(OC)cc2)c2ccccc2S1(=O)=O	inactive: 57%
COc1ccc(-n2c3c(c(=O)[nH]c2=O)C(NC(=O)c2ccccc2Cl)(C(F)(F)F)C(=O)N3)cc1 (centres undefined)	inactive: 55%
COc1cccc(C(=O)NCc2ccc3c(c2)CCN3C(=O)c2ccncc2)c1	inactive: 73%
COc1ccc(-c2[nH]c(-c3cccc(OC)c3)nc2SCC(=O)Nc2ccc3c(c2)OCO3)cc1	inactive: 55%
COc1ccccc1-c1nc(SCC(=O)c2ccccc2)n[nH]1	active: 53%
Cc1cc(C)cc(OCC(=O)Nc2nc3c(s2)CC(C(C)(C)C)CC3)c1 (centres undefined)	inactive: 107%
CCOC(=O)CC(NC(=O)CCc1c(C)nc2c(c(C)nn2-c2ccc(C)c(C)c2)c1C)c1ccc(C)cc1 (centres undefined)	inactive: 105%
Cc1cccc(-n2ncc(C(=O)N3CCN(C4CCCCC4)CC3)c2C2CCN(C(=O)OC(C)(C)C)CC2)c1	inactive: 94%
COc1ccc(OC)c2sc(NC(=O)c3ccc(S(=O)(=O)N4CCCC4)cc3)nc12	inactive: 118%
O=C(c1ccc(N2CCOCC2)cc1)c1cccs1	inactive: 98%
CCc1nnc(NC(=O)c2nc(S(=O)(=O)Cc3ccc(C)cc3)ncc2Cl)s1	active: 42%

Structure (SMILES)	survival
Cc1cc(C)c(NC(=O)C(C)n2c(=O)c(C(F)(F)F)nc3ccccc32)c(C)c1 (centres undefined)	inactive: 95%
COC(=O)c1ccc(CSc2nc(-c3ccco3)cc(C(F)(F)F)n2)o1	inactive: 84%
CCC(=O)N1CCc2cc(S(=O)(=O)NC(C(=O)NCCc3ccccc3)C(C)C)ccc21 (centres undefined)	inactive: 86%
CCN(c1ccccc1)c1nnc(NC(=O)Nc2ccc(Br)cc2)s1	inactive: 86%
Cn1cnc(S(=O)(=O)N2CCC(C(=O)NCc3ccccc3Cl)CC2)c1	inactive: 118%
Cc1ccc(C(=O)CC2(O)C(=O)N(Cc3ccccc3F)c3ccccc32)cc1 (centres undefined)	inactive: 60%
COc1cccc(NC(=O)CSc2nc3ccc(NC(=O)c4cccs4)cc3s2)c1	inactive: 65%
Cc1ccc(NC(=O)Nc2nnc(N3CCCC3)s2)cc1	inactive: 90%
CC(=O)N1CCOc2cc(S(=O)(=O)NC(C)c3ccccc3)c(Cl)cc21 (centres undefined)	inactive: 80%
Cc1cccc(C(=O)Nc2sc3c(c2C(=O)N2CCCCC2)CCC(C)C3)c1 (centres undefined)	active: -6%
CCN(CC)CCNC(=O)c1c(C)oc2ncn(C)c(=O)c12	inactive: 91%
O=C(CCc1cn(Cc2ccc(F)cc2)c2ccccc12)NCCc1ccc(Cl)cc1	inactive: 71%
COc1ccc(NC(=O)C(c2ccc(C)cc2)N(C)C(=O)/C=C\c2ccc3c(c2)OCO3)cc1 (centres undefined)	inactive: 66%
O=S(=O)(NCc1csc(-c2ccccc2)n1)c1cccc(F)c1	inactive: 79%
Cc1ccc(CN(Cc2ccco2)C(=O)COc2ccccc2C)cc1	active: 40%
COc1cccc(C2=C(C(C)=O)Sc3nncn3N2C(C)=O)c1	inactive: 102%
CCOC(=O)c1ccc(NC(=O)CCc2c(C)nc3c(c(C)nn3-c3ccccc3)c2C)cc1	inactive: 57%
CC(C)CNC(=O)c1cc2sccc2n1Cc1ccccc1	inactive: 105%
CC(C)C(=O)Nc1ccc(N2CCN(C(=O)c3ccccc3)CC2)cc1	inactive: 101%
CNS(=O)(=O)c1cn(CC(=O)N2CCN(c3ccccc3F)CC2)cc1S(=O)(=O)NC	inactive: 71%
